The full ranking holds about 33,000 sequences; the median of “E-score (-0.5 to 0.5)” is about -0.032, and the highest 2% start at about 0.36. The list shows a part of the results.

The assay addresses T1, Sko1 (UniProt Q02100).
T1 sequence: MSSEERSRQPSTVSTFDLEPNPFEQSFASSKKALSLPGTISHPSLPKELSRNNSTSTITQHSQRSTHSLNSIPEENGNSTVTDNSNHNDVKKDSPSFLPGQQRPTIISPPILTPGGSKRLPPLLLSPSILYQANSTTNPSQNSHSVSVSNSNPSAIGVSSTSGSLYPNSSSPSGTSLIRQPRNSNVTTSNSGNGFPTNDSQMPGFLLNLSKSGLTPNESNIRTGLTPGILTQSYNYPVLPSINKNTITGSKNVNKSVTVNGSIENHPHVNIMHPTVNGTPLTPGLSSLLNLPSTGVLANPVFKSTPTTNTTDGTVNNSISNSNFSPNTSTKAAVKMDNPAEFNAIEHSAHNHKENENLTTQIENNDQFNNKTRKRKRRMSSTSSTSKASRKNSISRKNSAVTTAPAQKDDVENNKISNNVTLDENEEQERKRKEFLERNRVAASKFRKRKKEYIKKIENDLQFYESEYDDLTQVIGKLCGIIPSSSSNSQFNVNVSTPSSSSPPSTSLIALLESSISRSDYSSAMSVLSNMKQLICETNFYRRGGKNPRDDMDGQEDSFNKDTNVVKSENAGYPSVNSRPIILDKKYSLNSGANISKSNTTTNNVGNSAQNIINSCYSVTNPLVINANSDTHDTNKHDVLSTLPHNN
The assay is described as follows: PBM E-score (8-mer binding enrichment) (E-score (-0.5 to 0.5)); higher = stronger / more preferred TF binding; most listed sequences are background and not binding sites. The conditions noted are these: protein concentration: 200 nM; construct: GST-full length. In a few lines:
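Masliner-normalised scans of fluorescent anti-GST signal were the basis for scoring. That signal came from GST-tagged yeast transcription factors applied at about 100-200 nM to double-stranded universal all-10-mer Agilent arrays on fresh or once-stripped slides. Each ungapped eight-base word, pooled with its reverse complement, received an E-score from the Universal PBM Analysis Suite.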
On to CAGGGCAG, for which the “PBM E-score” value is -0.211. As to AGTATTCG, the “PBM E-score” value was found to be 0.0215. Next, CATTGTGC: 0.152.

For CGGCGGCC, the “PBM E-score” value is -0.193. Then TACTAACA, with 0.0792.

For the sequence CAGGAATC, the “PBM E-score” value is -0.156. On to TATAATGA, for which the “PBM E-score” value stood at 0.233. Consider CGTATCCC, for which the “PBM E-score” value came to 0.147. Take AGAACCAG: the “PBM E-score” value is -0.306. Then ATTAAGTG, with 0.0343; and GGTTCAAA, with 0.045. Next, CGCACCAG: 0.0427; GCGCCACC: -0.291. Then GCGCGGGA, with -0.0474; and ATTTCATC, with 0.235. Consider GCGTTACA, for which the “PBM E-score” value was -0.0233. Next, GCAGCAGA: -0.135. Next, ATCTGTGG: -0.229.

As to AGTACTTC, the “PBM E-score” value is -0.0236. Then GCCCTGTA, with -0.128; and ATAATCCG, with -0.0668. Turning to GTTTTCTA, the “PBM E-score” value was 0.201. Next, ATTCCGGA: -0.0675; GCAAAAAA: 0.179; GAAAAAGA: -0.0197. Regarding CCTTGGCC, the “PBM E-score” value is -0.341. As for CAACGCTC, the “PBM E-score” value was determined as 0.0406. Next, CAGAGGAG: -0.114; AGTCGTAG: 0.145; GCGTTTCC: 0.17. As to GCATATTA, the “PBM E-score” value was 0.247. Next, AGCGTGAT: 0.147; GTACGTCA: 0.491; CTACCTTA: -0.068. Next, TACAGGAA: 0.0226; GAGTTCTA: -0.167; ATGATTCG: 0.0899. As for ATTGGCCG, the “PBM E-score” value is -0.155. Then CCTTTCAC, with 0.104; and CAGACGCC, with -0.188; and ATTTGCAG, with 0.0228. Next, GCGTTCCA: -0.0133; AGGCGAAG: -0.28; CCGCCCAA: -0.181. As to GGCACAAC, the “PBM E-score” value is -0.171.

Turning to TGTTCCAA, the “PBM E-score” value worked out at 0.0622. CAAAGGTA: the “PBM E-score” value was -0.023.

In the case of CCTCACAC, the “PBM E-score” value amounted to 0.0338. Then ACTACTGC, with -0.0692; and GTTCCTAA, with -0.0469.

For the sequence GCATGAGA, the “PBM E-score” value is -0.0685. For CCAACTCA, the “PBM E-score” value was -0.0644. Then ACATTGAC, with 0.175; and CGAGCTCC, with -0.0181. Consider AGGGGTGA, for which the “PBM E-score” value was -0.249.

With CAAACGGG, the “PBM E-score” value is -0.148. For the sequence CTCGCTGA, the “PBM E-score” value is -0.0791. Then GAACCGTA, with -0.273; and CCGCAGCG, with -0.266; and GCGTAAAC, with 0.281.

Regarding ACTATCGA, the “PBM E-score” value was -0.0539. Next, ACTTTGGC: -0.204. Turning to ATAAAACG, the “PBM E-score” value is 0.23. On to AGGTTCGG, for which the “PBM E-score” value was -0.268.

As to GATATGGA, the “PBM E-score” value came to 0.17. Turning to ATACATTA, the “PBM E-score” value is 0.217.

With AGGCGACA, the “PBM E-score” value is -0.35. Next, ATCCGTGG: -0.269; AATCCGAA: 0.095; GCATTTCA: -0.0873. With CAGGGAAA, the “PBM E-score” value was -0.154. Next, AAGCTGGC: -0.0611.

In the case of AGACCGGC, the “PBM E-score” value is -0.191. Then AATGTCCC, with -0.261; and GTACCCAA, with -0.0825; and CACATCTA, with 0.204. As for CAGAACCC, the “PBM E-score” value was -0.215. Take CTGCCCTC: the “PBM E-score” value was -0.262.

With GACTAGTC, the “PBM E-score” value is -0.117.

In the case of AGTATACC, the “PBM E-score” value is -0.0102. Regarding GCGACCAC, the “PBM E-score” value was -0.00397. AGAACCGA: the “PBM E-score” value is -0.0964. For CAGGTGCG, the “PBM E-score” value was -0.0175. Then AGTCGTGC, with -0.17; and AGGTCCCC, with -0.272. In the case of ATGTTAGC, the “PBM E-score” value was determined as 0.173.

The values are drawn from the supplement of paper PMC3334620.
